In all, about 33,000 sequences were measured (“E-score (-0.5 to 0.5)”: median about -0.012, highest 2% from about 0.29 on). Some of the results follow.
The sequences below were run against T1, Ybr033w (UniProt P38073) (assay: PBM E-score (8-mer binding enrichment) (E-score (-0.5 to 0.5)); higher = stronger / more preferred TF binding; most listed sequences are background and not binding sites). Settings: protein concentration: 200 nM; construct: GST-full length.
T1 sequence: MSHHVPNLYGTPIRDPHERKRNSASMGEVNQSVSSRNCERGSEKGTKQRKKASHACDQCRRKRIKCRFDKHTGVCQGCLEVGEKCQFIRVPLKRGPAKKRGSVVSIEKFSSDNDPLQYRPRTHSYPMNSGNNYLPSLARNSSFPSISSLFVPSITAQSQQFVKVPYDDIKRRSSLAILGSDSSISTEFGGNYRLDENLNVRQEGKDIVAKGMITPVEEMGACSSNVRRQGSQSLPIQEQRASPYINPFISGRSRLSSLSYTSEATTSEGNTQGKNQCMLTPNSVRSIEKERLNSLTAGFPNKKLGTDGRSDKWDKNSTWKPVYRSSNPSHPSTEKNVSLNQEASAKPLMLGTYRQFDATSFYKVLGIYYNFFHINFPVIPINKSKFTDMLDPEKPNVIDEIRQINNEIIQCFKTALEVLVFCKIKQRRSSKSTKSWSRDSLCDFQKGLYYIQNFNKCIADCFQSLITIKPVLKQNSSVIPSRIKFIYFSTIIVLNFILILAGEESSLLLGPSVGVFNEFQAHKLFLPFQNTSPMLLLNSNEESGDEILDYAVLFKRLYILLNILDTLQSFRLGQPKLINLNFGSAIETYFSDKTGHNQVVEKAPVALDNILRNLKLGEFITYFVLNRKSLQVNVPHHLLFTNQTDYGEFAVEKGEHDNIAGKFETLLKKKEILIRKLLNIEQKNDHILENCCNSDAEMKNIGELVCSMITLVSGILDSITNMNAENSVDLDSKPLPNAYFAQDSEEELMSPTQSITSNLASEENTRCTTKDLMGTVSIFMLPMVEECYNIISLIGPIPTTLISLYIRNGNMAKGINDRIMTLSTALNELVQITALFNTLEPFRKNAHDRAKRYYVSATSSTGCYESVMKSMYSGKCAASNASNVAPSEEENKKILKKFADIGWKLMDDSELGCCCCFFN
Method in brief: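 For each ungapped eight-base word taken together with its reverse complement, the Universal PBM Analysis Suite assigned an E-score. Binding data came from GST-tagged yeast transcription factors, applied at about 100-200 nM, on universal all-10-mer Agilent arrays made double-stranded by primer extension. Fluorescent anti-GST marked bound protein, and scans were normalised with masliner.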

For AGAGAACC, which “PBM E-score” value is on record?
Its value is -0.151.

CCTAAGAG was tested. Which “PBM E-score” value did it give?
The value was -0.0267.

Which “PBM E-score” value does the source give for ACTTGGGC here?
The value was -0.117.

TGGCCCCA was tested. Which “PBM E-score” value did it give?
Its value is -0.264.

Which “PBM E-score” value does the source give for AGTCACGC here?
Its value is -0.126.

Which “PBM E-score” value does the source give for CCGATCGA here?
Its value is -0.0568.

Which “PBM E-score” value does the source give for ATACGGAA here?
Its value is 0.271.

Which “PBM E-score” value does the source give for CTAGATAG here?
Its value is -0.0269.

For ACCTGCCT, which “PBM E-score” value is on record?
The value was -0.118.

With GATAGAAA as the sequence, how does the “PBM E-score” value read?
Its value is 0.115.

Which “PBM E-score” value does the source give for TCCCAGGA here?
Its value is -0.257.

With GAATTCCA as the sequence, how does the “PBM E-score” value read?
Its value is 0.262.

AAATCTTC was tested. Which “PBM E-score” value did it give?
Its value is 0.236.

For CCCGGTCC, which “PBM E-score” value is on record?
The value was -0.274.

CACGTGGG was tested. Which “PBM E-score” value did it give?
The value was -0.208.

AGAAAATA was tested. Which “PBM E-score” value did it give?
The value was 0.314.

Which “PBM E-score” value does the source give for TTAAGAAA here?
Its value is 0.0544.

With AAAAATAA as the sequence, how does the “PBM E-score” value read?
Its value is 0.275.

With GCTCAAGC as the sequence, how does the “PBM E-score” value read?
The value was -0.0465.

With GGCCCATA as the sequence, how does the “PBM E-score” value read?
Its value is -0.173.

Which “PBM E-score” value does the source give for CCGTAGAA here?
The value was -0.039.

ACCGCGAC was tested. Which “PBM E-score” value did it give?
The value was -0.0275.

With GGACGCTA as the sequence, how does the “PBM E-score” value read?
The value was -0.0845.

Which “PBM E-score” value does the source give for AAGCTTGC here?
Its value is -0.106.

For AGGTAGAG, which “PBM E-score” value is on record?
Its value is -0.0558.

For CGGCAGTA, which “PBM E-score” value is on record?
Its value is -0.2.

With ACAGCGAC as the sequence, how does the “PBM E-score” value read?
The value was -0.134.

With ATTCCCGG as the sequence, how does the “PBM E-score” value read?
The value was 0.0582.

How did the “PBM E-score” value turn out when CCCATAGG was run?
Its value is -0.205.

Which “PBM E-score” value does the source give for CACATTCC here?
The value was -0.0315.

For GTATCAAA, which “PBM E-score” value is on record?
The value was 0.2.

CCTTGGCA was tested. Which “PBM E-score” value did it give?
The value was -0.0926.

With ACGGTTGC as the sequence, how does the “PBM E-score” value read?
Its value is -0.272.

ACTTAAAA was tested. Which “PBM E-score” value did it give?
The value was 0.0812.

ATGCGCGC was tested. Which “PBM E-score” value did it give?
Its value is 0.0629.

Which “PBM E-score” value does the source give for GTTATCGA here?
Its value is 0.0103.

For CGGCTATC, which “PBM E-score” value is on record?
Its value is -0.0654.

With CTGGCCAA as the sequence, how does the “PBM E-score” value read?
The value was -0.0858.

For AAGGGGCC, which “PBM E-score” value is on record?
Its value is -0.22.

Which “PBM E-score” value does the source give for AGTTATTG here?
The value was 0.223.

How did the “PBM E-score” value turn out when CACCTCGC was run?
The value was -0.137.

With CAAGCGTA as the sequence, how does the “PBM E-score” value read?
Its value is 0.093.

How did the “PBM E-score” value turn out when CCCTGCAA was run?
The value was -0.0995.

CTTAACAC was tested. Which “PBM E-score” value did it give?
The value was 0.112.

How did the “PBM E-score” value turn out when AAGCCCTA was run?
Its value is -0.124.

ACGGGAGT was tested. Which “PBM E-score” value did it give?
The value was 0.0679.

Which “PBM E-score” value does the source give for AGGCAGAG here?
The value was -0.0794.

With ATCTTTTC as the sequence, how does the “PBM E-score” value read?
Its value is 0.239.

Which “PBM E-score” value does the source give for TGTGGAAA here?
Its value is 0.291.

With GGTGGTCA as the sequence, how does the “PBM E-score” value read?
The value was -0.228.

For ACTCCACC, which “PBM E-score” value is on record?
The value was 0.0171.

AACTATTC was tested. Which “PBM E-score” value did it give?
Its value is 0.165.

Which “PBM E-score” value does the source give for AGAGAACA here?
Its value is 0.112.

For ACATAGCC, which “PBM E-score” value is on record?
Its value is 0.0728.

With CCCGCTGA as the sequence, how does the “PBM E-score” value read?
The value was -0.372.

With ATTCCCGC as the sequence, how does the “PBM E-score” value read?
Its value is 0.165.

AGGAGCCG was tested. Which “PBM E-score” value did it give?
The value was -0.189.

For CCCTATTC, which “PBM E-score” value is on record?
Its value is -0.0732.

Which “PBM E-score” value does the source give for CCCCTAAC here?
Its value is -0.173.

Which “PBM E-score” value does the source give for CCCGGCGA here?
Its value is -0.248.

How did the “PBM E-score” value turn out when CATCACAG was run?
Its value is -0.03.

With CTATCTTC as the sequence, how does the “PBM E-score” value read?
The value was 0.133.

Which “PBM E-score” value does the source give for ACGCGAGA here?
The value was 0.104.

How did the “PBM E-score” value turn out when GCAAACGA was run?
Its value is 0.0591.

How did the “PBM E-score” value turn out when AGGACTAT was run?
Its value is -0.149.

GAAGCGGA was tested. Which “PBM E-score” value did it give?
Its value is -0.0122.

GAGCAAAC was tested. Which “PBM E-score” value did it give?
The value was -0.0275.

For AACGCCAT, which “PBM E-score” value is on record?
The value was -0.224.

CCAACGCG was tested. Which “PBM E-score” value did it give?
Its value is -0.132.

With ATGACCAT as the sequence, how does the “PBM E-score” value read?
Its value is -0.0382.

How did the “PBM E-score” value turn out when AACGACGT was run?
The value was 0.119.

For CTGCATGA, which “PBM E-score” value is on record?
The value was -0.241.

Which “PBM E-score” value does the source give for CACGAAGG here?
The value was -0.0542.

For GGAACCGA, which “PBM E-score” value is on record?
The value was -0.076.

With CATTGACA as the sequence, how does the “PBM E-score” value read?
Its value is -0.129.

Which “PBM E-score” value does the source give for AGTATATG here?
The value was 0.0561.

With AGGGCGTG as the sequence, how does the “PBM E-score” value read?
Its value is -0.231.

CGCCCGGC was tested. Which “PBM E-score” value did it give?
Its value is -0.279.

CCCTCGTA was tested. Which “PBM E-score” value did it give?
Its value is -0.14.

AAGATTCC was tested. Which “PBM E-score” value did it give?
Its value is 0.176.

How did the “PBM E-score” value turn out when GCTGAACC was run?
Its value is -0.131.

How did the “PBM E-score” value turn out when ACACCCGA was run?
The value was -0.0567.

Which “PBM E-score” value does the source give for ATGAAATC here?
Its value is 0.243.

For GGAGTACC, which “PBM E-score” value is on record?
The value was -0.2.

With CGTGTATC as the sequence, how does the “PBM E-score” value read?
Its value is -0.00118.

Which “PBM E-score” value does the source give for CCAATGAA here?
Its value is -0.194.

With CCCCCTAC as the sequence, how does the “PBM E-score” value read?
The value was -0.288.

How did the “PBM E-score” value turn out when ATATAGTC was run?
The value was 0.25.

ACCACTGA was tested. Which “PBM E-score” value did it give?
The value was -0.165.

AGCTTCAA was tested. Which “PBM E-score” value did it give?
Its value is 0.0592.

Which “PBM E-score” value does the source give for TAGTGTCA here?
The value was 0.126.

AGAATCCT was tested. Which “PBM E-score” value did it give?
The value was -0.0371.

For ATTCACCC, which “PBM E-score” value is on record?
Its value is 0.045.

With ATTTTAAC as the sequence, how does the “PBM E-score” value read?
Its value is 0.189.
